# Data published in the supplement of paper PMC3334620.
# Whole data set: some 33,000 sequences, median “E-score (-0.5 to 0.5)” near -0.012, cut for the highest 2% near 0.29. The list shows a part of the results.
# Target: T1, Ybr033w (UniProt P38073)
# T1 sequence: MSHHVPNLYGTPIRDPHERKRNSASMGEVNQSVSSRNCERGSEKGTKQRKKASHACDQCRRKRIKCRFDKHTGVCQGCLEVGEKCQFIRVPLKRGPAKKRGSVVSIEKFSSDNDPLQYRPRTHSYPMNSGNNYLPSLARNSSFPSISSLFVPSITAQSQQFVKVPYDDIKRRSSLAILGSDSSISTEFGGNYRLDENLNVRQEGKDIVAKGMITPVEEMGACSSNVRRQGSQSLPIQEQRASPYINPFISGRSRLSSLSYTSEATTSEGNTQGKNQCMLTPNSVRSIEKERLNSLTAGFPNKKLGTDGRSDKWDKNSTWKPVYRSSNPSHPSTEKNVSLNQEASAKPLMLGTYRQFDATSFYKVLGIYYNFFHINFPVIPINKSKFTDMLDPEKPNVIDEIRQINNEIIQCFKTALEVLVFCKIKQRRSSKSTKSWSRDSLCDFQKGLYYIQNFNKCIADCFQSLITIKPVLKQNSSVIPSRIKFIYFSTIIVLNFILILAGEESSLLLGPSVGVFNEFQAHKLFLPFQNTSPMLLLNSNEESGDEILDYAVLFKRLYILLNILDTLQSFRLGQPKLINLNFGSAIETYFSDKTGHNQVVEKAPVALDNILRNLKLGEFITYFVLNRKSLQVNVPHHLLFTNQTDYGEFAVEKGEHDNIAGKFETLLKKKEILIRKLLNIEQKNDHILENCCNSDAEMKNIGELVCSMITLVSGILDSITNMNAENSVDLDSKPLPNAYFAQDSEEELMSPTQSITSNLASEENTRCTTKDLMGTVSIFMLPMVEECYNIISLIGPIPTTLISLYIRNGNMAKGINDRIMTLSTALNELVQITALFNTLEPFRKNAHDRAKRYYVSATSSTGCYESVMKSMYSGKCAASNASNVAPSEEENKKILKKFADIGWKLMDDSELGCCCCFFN
# Assay: PBM E-score (8-mer binding enrichment) (E-score (-0.5 to 0.5)); higher = stronger / more preferred TF binding; most listed sequences are background and not binding sites
# Conditions: protein concentration: 200 nM; construct: GST-full length
# Outline: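 The E-score, a modified Wilcoxon-Mann-Whitney statistic, was computed by the Universal PBM Analysis Suite for every ungapped eight-base word pooled with its reverse complement. Scans behind it were normalised with masliner after bound GST-tagged yeast transcription factors were detected with fluorescent anti-GST. The proteins, at about 100-200 nM, had been applied to universal all-10-mer Agilent arrays made double-stranded by primer extension.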
row,Sequence,PBM E-score
1,ACCTGCGG,-0.146
2,AGGTACTC,0.0214
3,ATGGCTCA,-0.0225
4,AATGTCCT,0.0282
5,AGCTGAAA,0.0546
6,ACTCGTGC,-0.0546
7,GAAGTTTA,0.278
8,AGTCGGCG,-0.0441
9,GAGGGATC,-0.117
10,GACGACTC,-0.14
11,CCCAACGA,-0.107
12,ACCTTAGT,-0.026
13,CCAACGCA,-0.0708
14,TAAGCAGA,-0.0104
15,CCAATGTC,-0.0608
16,ACCGGACC,-0.199
17,CCCAGGGC,-0.364
18,GGTCAAAA,0.0783
19,CATGGCTC,-0.207
20,CATGTGAA,-0.098
21,CTACCTAA,0.196
22,GGAATGTA,0.114

row,Sequence,PBM E-score
1,GACTCTGC,-0.243
2,AAAACTAC,0.22
3,AGCTGGAC,-0.145
4,AAAAGGAA,0.0996
5,GGGCCAAC,-0.191
6,CTTTGGCA,-0.192
7,AACAGGAT,0.0273
8,CGCTCGAG,0.0302
9,AGGGTGGC,-0.053
10,GCGTCCCC,-0.287
11,CATGGTGA,0.137
12,ACTCGCCT,-0.118
13,GACTGAGA,-0.0938
14,CTACTCCA,-0.00018
15,ACCGACCT,-0.172
16,CCCTAGTA,-0.0894
17,CTCCACGC,-0.241
18,GATAACAA,0.153
19,GATGGCCC,-0.235
20,GAAGACTA,0.0291
21,GCTACTTA,0.0917
22,ATGGCGTA,0.0718

row,Sequence,PBM E-score
1,ACTAACGG,-0.0153
2,AGTTGGGA,-0.086
3,ATAGCCAT,0.0973
4,GAGTGAGA,0.105
5,ATAGCTCG,-0.106
6,ACGACACA,0.0592
7,CTACCAGA,0.0212
8,TGTAATAA,0.297
9,CGCGTTCC,-0.227
10,ATTCGACC,-0.285
11,AACCTGTC,-0.181
12,CTGATGAA,0.119
13,ATGCGTAC,0.111
14,TCACAAGA,-0.0328
15,CGCCGAAC,-0.00384
16,GTTTGCGA,0.0654
17,CGCAGCCA,-0.0917
18,CGGCAGAA,-0.149
19,GGTCACGA,-0.0573
20,TGGAACCA,0.0554
21,ATAACCGA,-0.0613
22,CAAGGTGA,-0.103

row,Sequence,PBM E-score
1,ATATGTCA,0.118
2,GCAGTGCC,-0.186
3,AGATTCCT,0.036
4,GCCTATAC,-0.128
5,CAGCGAGG,-0.138
6,AAACGATT,0.053
7,GCATCTGA,-0.195
8,CAAGTAAG,0.137
9,ACGAACCA,0.204
10,CCATTTGC,0.0186
11,AACGTAGG,-0.201
12,AACACGTA,0.0645
13,GACCGTCC,-0.223
14,CAAAGCTC,-0.212
15,GAGTAGAC,-0.0114
16,CCAAACAG,-0.228
17,AGTGACAT,0.056
18,GCCAGGAA,0.00279
19,GAGCGCTA,-0.0339
20,AATTCATA,0.235
